Results: article PMC4336329 (PLoS ONE, 2015)
The campaign covered roughly 310,000 compounds. About 14,000 (4.5%) showed an effect of 50% or more. Effects have a minus sign here. Some of the results follow. Where a SMILES comes first, the peptide text is derived from it. The star is where a group is joined. Cbz = O=C(OCc1ccccc1)*

Target: human ether-à-go-go-related gene (hERG) potassium channel (human, UniProt Q12809)
Experiment: primary screen, population patch clamp on CHO cells stably expressing hERG
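Further: peak tail current of the secondary pulse compared with the same well before compound.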

Chain of human ether-à-go-go-related gene (hERG) potassium channel (Q12809 whole entry, looked up): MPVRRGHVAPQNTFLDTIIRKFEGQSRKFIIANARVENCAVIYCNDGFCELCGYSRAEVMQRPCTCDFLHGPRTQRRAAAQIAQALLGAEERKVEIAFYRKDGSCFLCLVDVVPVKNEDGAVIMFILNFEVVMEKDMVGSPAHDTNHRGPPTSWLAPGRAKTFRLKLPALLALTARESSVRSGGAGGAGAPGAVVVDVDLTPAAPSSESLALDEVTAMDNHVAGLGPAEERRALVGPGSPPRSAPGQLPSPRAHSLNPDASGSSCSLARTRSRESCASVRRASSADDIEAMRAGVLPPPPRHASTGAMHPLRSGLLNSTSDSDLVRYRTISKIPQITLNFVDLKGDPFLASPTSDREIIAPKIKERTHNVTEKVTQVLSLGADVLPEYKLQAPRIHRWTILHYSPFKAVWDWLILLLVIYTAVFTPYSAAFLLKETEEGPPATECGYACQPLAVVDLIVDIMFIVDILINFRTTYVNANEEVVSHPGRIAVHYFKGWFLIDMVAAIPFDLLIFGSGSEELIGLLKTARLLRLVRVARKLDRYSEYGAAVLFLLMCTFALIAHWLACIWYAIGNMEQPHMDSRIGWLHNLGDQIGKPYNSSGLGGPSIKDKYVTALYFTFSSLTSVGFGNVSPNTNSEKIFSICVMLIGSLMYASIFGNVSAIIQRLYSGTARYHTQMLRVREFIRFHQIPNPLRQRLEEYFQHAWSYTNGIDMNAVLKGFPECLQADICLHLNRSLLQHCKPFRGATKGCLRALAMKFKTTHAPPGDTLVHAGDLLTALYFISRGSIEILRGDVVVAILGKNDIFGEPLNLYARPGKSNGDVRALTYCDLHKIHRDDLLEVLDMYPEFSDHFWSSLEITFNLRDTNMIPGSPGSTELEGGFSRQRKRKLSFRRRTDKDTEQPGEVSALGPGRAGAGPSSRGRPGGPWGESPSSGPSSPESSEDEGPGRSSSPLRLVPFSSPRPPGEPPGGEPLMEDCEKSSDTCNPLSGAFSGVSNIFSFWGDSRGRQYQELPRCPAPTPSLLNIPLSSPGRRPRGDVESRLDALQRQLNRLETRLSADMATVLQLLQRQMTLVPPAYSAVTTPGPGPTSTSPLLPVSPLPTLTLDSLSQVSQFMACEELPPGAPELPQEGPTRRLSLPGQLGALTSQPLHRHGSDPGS

| SMILES | hERG current change (%, negative = inhibition) at 10uM |
| --- | --- |
| Cc1ccc(Cl)cc1N1CCN(S(=O)(=O)c2c(C(=O)N3CCOCC3)c(C)n(C)c2C)CC1 | -11% |
| CCc1ccc(/C=C2/C(=O)N(c3ccccc3)C(=S)N2CC(=O)OC)s1 | 7.72% |
| COC(=O)CN(c1ccccc1)S(=O)(=O)c1ccccc1 | 4.04% |
| CCNc1nc2nc3ccc(C)cn3c(=O)c2cc1C(=O)NCC1CCCO1 (stereo not shown) | -70.6% |
| Cc1ccccc1NC1=NCC(c2ccc([N+](=O)[O-])cc2)S1 (stereo not shown) | -44.9% |
| CCn1c(SCC(=O)N2CCCc3ccccc32)nnc1-c1ccoc1C | -8.22% |
| COC(=O)CSc1ccsc1C(=O)O | 5.72% |
| COc1cc(CNc2nc(C)c([N+](=O)[O-])c(C)c2C#N)cc(OC)c1 | 10.8% |
| Fc1ccccc1-c1nc(N2CCCCC2)c2ccccc2n1 | -1.61% |
| O=C(COc1cccc2cccnc12)NCC(F)(F)F | 7.06% |
| COc1ccc(NC(=O)CCCC2CCCCC2)c(OC)c1 | 11.2% |
| CCCN(CC(=O)Nc1ccccc1OC)C(=O)c1ccncc1 | 14% |
| O=C(CN1C(=O)NC2(CCCCC2)C1=O)NNC(=O)C1CC1 | -1.21% |
| CNC(=O)CSc1nnc(-c2cccs2)o1 | 1.75% |
| COC(=O)c1[nH]c2ccccc2c1NC(=O)c1ccccc1[N+](=O)[O-] | 5.24% |
| COc1ccc([C@H]2/C=C\CN(C(=O)C3CC3)[C@@H](C)C(=O)N2Cc2ccc(F)cc2)cc1 | -34.8% |
| COc1ccc(CNC(=O)C(C)N2CCN(S(=O)(=O)c3ccccc3F)CC2)cc1 (stereo not shown) | -15.9% |
| CCOc1ccccc1NC(=O)CSc1nnnn1C1CCCC1 | -17.4% |
| O=C(Nc1ccc(F)cc1)c1cccc2c1C(=O)N(Cc1ccccn1)C2 | -27.6% |
| Cc1cccc(C)c1-n1ncc(C(=O)NC2CCCC2)c1C1CCNCC1 | 18.9% |
| CCOc1ccc(NC(=O)CN(C)c2ccc(S(=O)(=O)N(C(C)C)C(C)C)cn2)cc1OCC | 5.89% |
| CCOC(=O)c1cccc(N2C(=O)c3ccccc3S2(=O)=O)c1 | -59.5% |

| SMILES | hERG current change (%, negative = inhibition) at 10uM |
| --- | --- |
| O=C(NCc1cccnc1)NC1(c2ccccc2)CC1 | 11.5% |
| O=c1c2ccccc2nc(SCC2CCCCO2)n1-c1ccccc1 (stereo not shown) | 6.19% |
| O=C(CSc1nnc(Cc2ccccc2)o1)NCCc1ccccc1 | -3.81% |
| COc1ccc(C(=O)Cn2cnc3ccc(Cl)cc3c2=O)cc1F | -7.44% |
| O=C(c1cccc(Oc2ccc([N+](=O)[O-])cc2Cl)c1)N1CCOCC1 | -36.6% |
| COc1cccc(CNC(=O)Nc2cccs2)c1 | 11% |
| CCOC(=O)CNC(=O)CSc1ncnc2c1cnn2-c1ccccc1 | -7.28% |
| COC(=O)c1ccc(/C=N\N2CCN(c3ccccc3)CC2)cc1 | 27.8% |
| CCOc1cc2c(cc1OCC)-n1cccc1C(c1ccc(F)cc1)NC2.Cl (stereo not shown) | 0.0384% |
| COc1ccccc1C(=O)NC(=O)CSc1nnc(SC)s1 | 1.36% |
| COc1cccc(COC(=O)C2CCN(C(=O)c3ccc(F)cc3)CC2)c1OC | 5.09% |
| FC(F)(F)c1n[nH]c(=S)n1/N=C/c1ccco1 | 5.55% |
| CN(CCC#N)C(=O)CSc1ncnc2sc(-c3ccccc3)cc12 | -28.6% |
| COc1cccc(C(=O)COC(=O)c2ccc(NC(C)=O)cc2)c1 | 7.01% |
| CCS(=O)(=O)Nc1cc(-c2nc3cccnc3s2)ccc1C | 5.66% |
| S=c1[nH]nc(CN2CCCC2)n1Cc1ccccc1 | -8.32% |
| CC(=O)c1c(C)[nH]c(C(=O)CN2C(=O)NC(C)(c3ccc(C)cc3)C2=O)c1C (stereo not shown) | 20.8% |
| CCOC(=O)C1(CCOc2ccccc2)CCN(S(=O)(=O)N(C)C)CC1 | -1.79% |
| O=C(CCN1C(=O)c2ccccc2S1(=O)=O)N1CCN(c2ccc(F)cc2)CC1 | -61.9% |
| O=C(NCCCn1ccnc1)c1ccc(N2CCCCC2)c([N+](=O)[O-])c1 | -71.7% |
| CCOc1ccc([C@@H]2CC=C(C(=O)O)[C@H](c3cccc(Cl)c3)N2S(=O)(=O)c2ccc(C)cc2)cc1 | 3.82% |
| CC(C)CN(C(=O)CC1OC(=O)c2ccccc21)c1c(N)n(Cc2ccccc2)c(=O)[nH]c1=O (stereo not shown) | -8.49% |

| SMILES | hERG current change (%, negative = inhibition) at 10uM |
| --- | --- |
| CCCOc1ccc(NC(=O)CC2C(=O)N(CC)C(=S)N2CCNC(C)=O)cc1 (stereo not shown) | -11.5% |
| CN(C)/C=C1\SC(=S)N(c2ccc(F)cc2)C1=O | 4.89% |
| Cc1ncsc1CCC(=O)N1CCCC(C(=O)c2ccc3c(c2)OCO3)C1 (stereo not shown) | -19.2% |
| CN1CCN(C(=O)c2ccc3c(c2)N(Cc2cccc(Cl)c2)C(=O)c2ccccc2S3(=O)=O)CC1 | 10.8% |
| N#Cc1ccc(OCC(=O)Nc2ccc3[nH]c(=O)[nH]c3c2)cc1 | -4.57% |
| Cc1ccc(-c2cc(C(=O)NC3CCCCC3)no2)cc1 | 28.1% |
| CCCCc1c(O)nc2sc3cc(OC)ccc3n2c1=O | 12.8% |
| CCOc1ccc(C(C)=O)cc1CSc1nnc(-c2ccoc2C)n1N | -3.47% |
| CN(C)S(=O)(=O)Oc1ccsc1C(=O)Nc1ccc(C(F)(F)F)cc1 | -9.43% |
| COc1ccc(CNc2nc(-c3cccnc3)nn2S(C)(=O)=O)cc1 | -7.9% |
| CCCCOC(=O)c1ccc(NC(=O)c2ccoc2C)cc1 | 9.42% |
| COc1ccc(CC2=C(O)c3ccccc3C(=O)C2=O)cc1 | 15.7% |
| Cc1nn(Cc2ccccc2)c(C)c1NC(=O)CSc1nc(C2CC2)nc2c1cnn2-c1ccccc1 | 8.84% |
| CC(C)(C)c1ccc(-n2ncc3c2CCCC3NC(=O)CCN2CCCCC2=O)cc1 (stereo not shown) | -2.8% |
| CNC(=S)N/N=C/c1ccc(-c2cc([N+](=O)[O-])ccc2Cl)o1 | 20.5% |
| CCOC(=O)/C(=C/c1ccccc1)NC(=O)c1ccco1 | -7.55% |
| Cc1ccc(S(=O)(=O)NC(=O)c2cc(C)n(-c3cc(S(=O)(=O)N4CCOCC4)ccc3N3CCCC3)c2C)cc1 | -11.2% |
| Cc1ccc(NCCC(=O)c2cccs2)cc1Cl | 10.2% |
| CCOC(=O)Cn1c(C)nc2ccccc21 | -21.4% |
| COc1ccc(S(=O)(=O)N(C)C)cc1NC(=O)CCCSc1ccccc1 | -21.4% |
| O=C1/C(=C/c2cccs2)CCC1C1CCCC1 (stereo not shown) | -9.54% |
| CCOc1ccc(-c2c[n+]3c(n2-c2ccccc2)CCCCC3)cc1.[Br-] | -64.7% |

| SMILES | hERG current change (%, negative = inhibition) at 10uM |
| --- | --- |
| O=C(Nc1cc(-c2nc3ncccc3o2)ccc1Cl)c1ccc([N+](=O)[O-])o1 | -42.3% |
| Cc1ccc(N=C2SCCCN2C(=O)C2=COCCO2)cc1Cl | 12.8% |
| O=C(Nc1ccc2c(c1)OCO2)N1CCN(S(=O)(=O)c2ccc(Cl)cc2)CC1 | -5.2% |
| CCCN1CCC(N2CCN(c3cccc(C(F)(F)F)c3)CC2)CC1 | -75.3% |
| Cc1sc2ncn(CC(=O)NCCCC(=O)N3CCN(c4ccccc4)CC3)c(=O)c2c1C | -24.6% |
| O=C(CSCC(=O)OCC(=O)c1ccc(Br)cc1)Nc1cccc2ccccc12 | -5.49% |
| CC(C)/C=C1\CC/C(=C\c2ccc(N(C)C)cc2)C1=O | 3.4% |
| O=C(Nc1nc2c(s1)CCc1ccccc1-2)c1ccco1 | -45.3% |
| COc1cccc(-n2c(C)nn(CCOc3ccccc3)c2=O)c1 | 8.58% |
| COc1cc(C2NC(=O)c3ccccc3O2)ccc1OC(C)C (stereo not shown) | 18.9% |
| Cc1cccc2cc(C#N)c(NCCNC(=S)NCCCN3CCOCC3)nc12 | -36.3% |
| COc1ccc(OCC(=O)NNC(=S)NC(=O)c2ccc(Br)o2)cc1 | 17.1% |
| CC(=O)c1cccc(CN2CCCC(C(=O)c3ccc4c(c3)OCO4)C2)c1 (stereo not shown) | -64.9% |
| Nc1ccc(C(=O)N/N=C\C=C\c2ccc([N+](=O)[O-])cc2)cc1 | 12.2% |
| Cc1ccc(C(=O)CN2C(=O)NC3(CCCCC3C)C2=O)s1 (stereo not shown) | -8.45% |
| CCOC(=O)N1CCN(C(=O)C(=O)NN)CC1 | 25.5% |
| O=[N+]([O-])c1ccc(C(O)CNC(=S)Nc2ccccc2)cc1 (stereo not shown) | -11.6% |
| COC(=O)[C@H](C)NC(=O)Nc1ccc(C)c(C)c1 | 17.6% |
| COCCn1nnnc1C(c1ccccc1OC)N1CCN(C(=O)c2ccco2)CC1 (stereo not shown) | -16.1% |
| COc1cccc(/C=N/Nc2cc(N3CCOCC3)ncn2)c1O | 7.93% |
| O=C(NCc1ccccc1)c1ccc2c(c1)C(=O)N(Cc1cccnc1)C2=O | -15% |
| O=C(N[C@@H](Cc1ccccc1)C(=O)N[C@@H](Cc1ccccc1)C(=O)O)OCc1ccccc1 (Cbz-Phe-Phe-OH) | 1.13% |
